# Test results from the supplement of paper PMC8728848.
# Some of the results follow.
# Tests used:
# Assay in all cases: glycan array binding signal (z-score within array); higher = stronger binding
# Conditions in all cases: glycan notation: IUPAC condensed, linker removed
# [1] = molecular target: Gal(a1-3)Gal(b1-4)GlcNAc(b1-2)Man(a1-3)[Gal(a1-3)Gal(b1-4)GlcNAc(b1-2)Man(a1-6)]Man(b1-4)GlcNAc(b1-4)GlcNAc
# How it was run: (§1)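 The binding signal is a Z-score computed within each array. Data were drawn from 3228 arrays in the Consortium for Functional Glycomics database, restricted to those with a known protein sequence. Scores were averaged over arrays of the same protein sequence at different concentrations or buffers, and over linkers, and negative values can be taken as non-binding.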
# [2] = molecular target: Gal(a1-3)Gal(b1-4)GlcNAc(b1-3)GalNAc
# How it was run: as §1
# [3] = molecular target: Gal(a1-3)Gal(b1-4)GlcNAc(b1-6)GalNAc
# How it was run: as §1
# [4] = molecular target: Gal(a1-3)Gal(b1-4)[Fuc(a1-3)]GlcNAc
# How it was run: as §1
# [5] = molecular target: Gal(a1-3)Gal(b1-4)[Fuc(a1-3)]GlcNAc(b1-2)Man(a1-3)[Gal(a1-3)Gal(b1-4)[Fuc(a1-3)]GlcNAc(b1-2)Man(a1-6)]Man(b1-4)GlcNAc(b1-4)GlcNAc
# How it was run: as §1
# [6] = molecular target: Gal(a1-3)GalNAc
# How it was run: as §1
# [7] = molecular target: Gal(a1-3)[Gal(a1-4)]Gal(b1-4)GlcNAc
# How it was run: as §1
# [8] = molecular target: Gal(a1-4)Gal(b1-3)GlcNAc(b1-2)Man(a1-3)[Gal(a1-4)Gal(b1-3)GlcNAc(b1-2)Man(a1-6)]Man(b1-4)GlcNAc(b1-4)GlcNAc
# How it was run: as §1
# [9] = molecular target: Gal(a1-4)Gal(b1-4)Glc
# How it was run: as §1
# [10] = molecular target: Gal(a1-4)Gal(b1-4)GlcNAc
# How it was run: as §1
# [11] = molecular target: Gal(a1-4)Gal(b1-4)GlcNAc(b1-2)Man(a1-3)[Gal(a1-4)Gal(b1-4)GlcNAc(b1-2)Man(a1-6)]Man(b1-4)GlcNAc(b1-4)GlcNAc
# How it was run: as §1
# [12] = molecular target: Gal(a1-4)Gal(b1-4)GlcNAc(b1-3)Gal(b1-4)Glc
# How it was run: as §1
# [13] = molecular target: Gal(a1-4)GlcNAc
# How it was run: as §1
# [14] = molecular target: Gal(a1-6)Glc
# How it was run: as §1
# [15] = molecular target: Gal(b1-2)Gal
# How it was run: as §1
# [16] = molecular target: Gal(b1-3)Gal
# How it was run: as §1
# [17] = molecular target: Gal(b1-3)Gal(b1-4)GlcNAc
# How it was run: as §1
# [18] = molecular target: Gal(b1-3)GalNAc
# How it was run: as §1
# [19] = molecular target: Gal(b1-3)GalNAc(a1-3)[Fuc(a1-2)]Gal(b1-4)Glc
# How it was run: as §1
# [20] = molecular target: Gal(b1-3)GalNAc(a1-3)[Fuc(a1-2)]Gal(b1-4)GlcNAc
# How it was run: as §1
# [21] = molecular target: Gal(b1-3)GalNAc(b1-3)Gal
# How it was run: as §1
# [22] = molecular target: Gal(b1-3)GalNAc(b1-3)Gal(a1-4)Gal(b1-4)Glc
# How it was run: as §1
# [23] = molecular target: Gal(b1-3)GalNAc(b1-4)Gal(b1-4)Glc
# How it was run: as §1
# [24] = molecular target: Gal(b1-3)GalNAc(b1-4)[Neu5Ac(a2-3)]Gal(b1-4)Glc
# How it was run: as §1
# [25] = molecular target: Gal(b1-3)GlcNAc
# How it was run: as §1
# [26] = molecular target: Gal(b1-3)GlcNAc(a1-3)Gal(b1-4)GlcNAc
# How it was run: as §1
# [27] = molecular target: Gal(b1-3)GlcNAc(a1-6)Gal(b1-4)GlcNAc
# How it was run: as §1
# [28] = molecular target: Gal(b1-3)GlcNAc(b1-2)Man
# How it was run: as §1
# [29] = molecular target: Gal(b1-3)GlcNAc(b1-2)Man(a1-3)[Gal(b1-3)GlcNAc(b1-2)Man(a1-6)]Man(b1-4)GlcNAc(b1-4)GlcNAc
# How it was run: as §1
# [30] = molecular target: Gal(b1-3)GlcNAc(b1-2)Man(a1-3)[Gal(b1-3)GlcNAc(b1-2)Man(a1-6)]Man(b1-4)GlcNAc(b1-4)[Fuc(a1-6)]GlcNAc
# How it was run: as §1
binder,measurement,setting,value
Blon2468mut (Bifidobacterium longum) (protein) MTFIKQMMPRYVASMTAGIVAAAMAATCAFAPVANADAVSPTQETIQSTGRHFMVYYRAWRDVTMKGVNTDLPDDNWISMYDIPYGVDVVNIFSYVPSGQEEQAQPFYDKLKSDYAPYLHSRGIKLVRGIDYTGVAVNGFRTFMKEQNKTESEATEADYDAYAKQVIDKYMISVGLDGLDIDMQAHPNDADVKISDNVIRALSKHIGPKSAKPDTTMFLYDTNGSYLNPFKNVAECFDYVAYQQYGSSSDRTARAAADYQPYIGNEFVPGLTFPEEGDMNNRWYDATEPYEESHFYQVASYVREHNLGGMFVYALDRDGRNYDEDLRRIVPSNLLWTKTAIAESEGMALDTAKTAANHYLDRMSLRQVIDDNAASADKARDMVGKAANLYETNKAVLGGDYGEGFSNTYDPTLEAGLLGIDISVLQQQIDKSSEIIGADTAESDAKTALRMARDAAIDGLTGKIYTADQVSAWSQALKAALDATVPVPTPDSTDQNGNRDKVTNHKVQGQPKQLSATGISTDIIVAVGVTLAIAGVALSLSRKLS,glycan array binding signal (z-score),[1],-0.069
same,glycan array binding signal (z-score),[2],-0.074
same,glycan array binding signal (z-score),[3],-0.071
same,glycan array binding signal (z-score),[4],-0.083
same,glycan array binding signal (z-score),[5],-0.05
same,glycan array binding signal (z-score),[6],-0.031
same,glycan array binding signal (z-score),[7],0.009
same,glycan array binding signal (z-score),[8],-0.094
same,glycan array binding signal (z-score),[9],-0.045
same,glycan array binding signal (z-score),[10],-0.04
same,glycan array binding signal (z-score),[11],-0.062
same,glycan array binding signal (z-score),[12],-0.052
same,glycan array binding signal (z-score),[13],-0.05
same,glycan array binding signal (z-score),[14],-0.067
same,glycan array binding signal (z-score),[15],-0.062
same,glycan array binding signal (z-score),[16],-0.068
same,glycan array binding signal (z-score),[17],-0.047
same,glycan array binding signal (z-score),[18],-0.072
same,glycan array binding signal (z-score),[19],-0.066
same,glycan array binding signal (z-score),[20],-0.079
same,glycan array binding signal (z-score),[21],-0.065
same,glycan array binding signal (z-score),[22],-0.03
same,glycan array binding signal (z-score),[23],-0.045
same,glycan array binding signal (z-score),[24],-0.063
same,glycan array binding signal (z-score),[25],-0.068
same,glycan array binding signal (z-score),[26],-0.085
same,glycan array binding signal (z-score),[27],-0.086
same,glycan array binding signal (z-score),[28],-0.078
same,glycan array binding signal (z-score),[29],-0.075
same,glycan array binding signal (z-score),[30],-0.068
